Source: patent US20120107324A1

Molecular target: avb3 and avb5 integrins (on A375M cells)
Assay: cell-based or functional assay

B1: 7B1.3A1 (antibody, IgG4, V domains shown)
VH: QVQLVESGGGVVQPGRSLRLSCAASGFTFRSYGMHWVRQAPGKGLEWVAVLWYDGSNKNYADSVKGRFTISRDNSKNTLYLQMNSLRAEDTAMYYCARDGAARRGDYYYYHGMDVWGQGTTVTVSS
VL: [left out - about 100 residues]FTFGPGTKVDIK
Osteopontin Adhesion (% inhibition) of A375M cells at 5 ug/ml: 14%
